Measured values: PubChem BioAssay AID504832 (National Center for Advancing Translational Sciences (NCATS), 2011)
About 18,000 (5.8%) of roughly 310,000 compounds were called active. This list was built around the results that the source calls inconclusive (neither active nor inactive); the mix of calls is not that of the screen. Calls follow the shape of the dose curve; as a rule, active = well fitted inhibition curve with a large enough effect; inconclusive = small, poorly fitted or top-dose-only effect, or another doubt; inactive = no such curve, though single readings can be large or run the other way. No potency is given beside an inconclusive call; the fits are too rough.

Assay: Primary qHTS for delayed death inhibitors of the malarial parasite plastid, 48 hour incubation
Conditions: P. falciparum luciferase growth in erythrocytes; series mostly up to 28.7 µM; activity change, negative = inhibition: at the top concentration
Procedure, shortened: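 Compounds are pin-transferred into medium, infected erythrocytes (2% hematocrit, 0.1% parasitemia final) are added, and plates sit one parasite generation at 37 C in 5% CO2. Detection reagent is then added and luminescence measured.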
% is scaled to controls: 0 for no effect and ±100 for the full control effect; potency is read from the fitted curve at half-maximal effect; tags tell the direction and shape of the fitted curve.

Row | SMILES | Potency | activity change, negative = inhibition
1 | CS(=O)(=O)N(Cc1ccccc1Cl)c1ccc(C(=O)NCc2ccccn2)cc1 | inconclusive [inhibitor, single point] | –
2 | COC(=O)[C@@H](CC(C)C)NS(=O)(=O)N(Cc1ccccc1)[C@@H](CC(C)C)C(=O)OC | active: 13.1 µM | –
3 | COc1cc(OC)c(-c2cc(C(=O)O)ccc2OC)c(OC)c1 | – | inactive: 1.18%
4 | CCOC(=O)c1ccccc1NC(=O)CSc1nnc(Cc2cccn2C)n1-c1ccc(F)cc1 | inconclusive [inhibitor, partial curve, poor fit] | –
5 | CCN(C(=O)CN1CCN(S(=O)(=O)c2ccccc2C(F)(F)F)CC1)c1c(N)n(Cc2ccccc2)c(=O)[nH]c1=O | – | inactive: -12.6%
6 | COc1ccc(NC(=O)c2cc(C)cc(C)c2)cc1S(=O)(=O)N1CCCCC1 | inconclusive [inhibitor, single point] | –
7 | Cc1oc(-c2ccoc2)nc1CN(Cc1ccccc1)CC1CC1 | inconclusive [inhibitor, partial curve] | –
8 | Cc1ccc(C(=O)NCCN2C3=NC[C@@H](Cc4ccccc4)N3C[C@H]2Cc2ccc(O)cc2)cc1Br | active: 9.28 µM | –
9 | CCSc1ccc2nnc(-c3ccc(F)cc3)n2n1 | – | inactive: -14.5%
10 | CC(C)NC(=O)CN1CCN(Cc2nc(C(c3ccccc3)c3ccccc3)no2)CC1 | active: 9.28 µM | –
11 | Cc1ccc(SCC(=O)c2c(C)[nH]c3ccccc23)cc1 | inconclusive [inhibitor, partial curve, poor fit] | –
12 | COc1ccc2cc(CCl)c(Cl)nc2c1 | inconclusive [inhibitor, partial curve, poor fit] | –
13 | COc1ccccc1NC(=O)CSc1ccc(-c2ccc(-n3cccn3)cc2)nn1 | inconclusive [inhibitor, single point] | –
14 | Cc1ccc(NC(=O)c2ccc(NCCCN3CCC(C)CC3)c([N+](=O)[O-])c2)cc1F | active: 1.17 µM | –
15 | C=CCn1c(SCC(=O)NCCc2ccccc2)nnc1C(C)NC(=O)c1cccs1 (configuration not stated) | inconclusive [inhibitor, single point] | –
16 | CC(C)COCC(CN(Cc1ccccc1)c1ccccc1)N1CCCC1 (configuration not stated) | active: 10.7 µM | –
17 | N=c1n(CCN2CCOCC2)c2ccccc2n1CC(=O)c1ccc(Cl)c(Cl)c1 | active: 11.7 µM | –
18 | COc1ccc(C(CNC(=O)c2cccc(S(=O)(=O)Nc3ccc(F)cc3)c2)N(C)C)cc1 (configuration not stated) | active: 11.7 µM | –
19 | O=C(Oc1ccc(Cl)c2cccnc12)C12CC3CC(CC(C3)C1)C2 | inconclusive [inhibitor, single point] | –
20 | NC(=O)CC(NC(=O)Cc1cccc2ccccc12)c1ccc(NCCCN2CCCC2=O)c([N+](=O)[O-])c1 (configuration not stated) | inconclusive [inhibitor, partial curve, poor fit] | –
21 | COC(=O)[C@@]12CCCN1[C@H](c1ccc(-c3ccc4c(c3)OCO4)c(OC)c1)[C@H]1C(=O)N(C)C(=O)[C@H]12 | inconclusive [inhibitor, single point] | –
22 | O=C(Nc1ccc(F)cc1)C(c1ccccc1)N1CCN(S(=O)(=O)c2c(F)cccc2F)CC1 (configuration not stated) | inconclusive [inhibitor, partial curve, poor fit] | –
23 | Cc1ccc(/C=c2\sc3nc(-c4ccccc4Br)nn3c2=O)o1 | – | inactive: 4.32%

Row | SMILES | Potency | activity change, negative = inhibition
24 | C=NC(C(=O)NC1C(=O)N2C1SC(C)(C)C2C(=O)O)c1ccccc1 (configuration not stated) | – | inactive: 1.62%
25 | CCOc1ccc(-c2nnc(-c3ccncc3)o2)cc1 | – | inactive: 291%
26 | CC1CN(c2oc(-c3ccco3)nc2C#N)CC(C)O1 (configuration not stated) | – | inactive: 4.28%
27 | Cc1ccc(-c2nnn(CC(=O)N(Cc3cccs3)C(C(=O)NC3CCCC3)c3ccncc3)n2)cc1 (configuration not stated) | active: 5.86 µM | –
28 | CCOc1ccc(-c2cc(C(=O)NCCCN3CCCC3)c3ccccc3n2)cc1 | active: 11.7 µM | –
29 | Cn1nc(C(C)(C)C)cc1C(=O)Nc1nc2c(s1)C(=O)CC(C)(C)C2 | – | inactive: -6.15%
30 | Clc1ccc(-c2nnc(NCc3ccccc3)c3ccccc23)cc1 | inconclusive [inhibitor, partial curve] | –
31 | COc1ccccc1Cn1c(=S)[nH]c2cc(C(=O)N3CCCC3)ccc2c1=O | inconclusive [inhibitor, single point] | –
32 | CCn1nccc1C(=O)Nc1nc2ccccc2n1CCN1CCCCC1 | inconclusive [inhibitor, single point] | –
33 | CCCN(CC(=O)Nc1ccc(F)c(F)c1F)C(=O)C1=COCCO1 | – | inactive: 8.82%
34 | O=C(C1=C(O)C(=O)N(CCCN2CCOCC2)C1c1ccc(Cl)cc1)c1cc2ccccc2o1 (configuration not stated) | – | inactive: 9.65%
35 | COc1cc(C(CCN2CCCC2)c2c(OC)cc(OC)c3ccc(=O)oc23)cc(OC)c1OC (configuration not stated) | inconclusive [inhibitor, partial curve] | –
36 | Cc1ccc(NCC(=O)Nc2cccc(S(=O)(=O)N(C)C)c2)c(Cl)c1 | inconclusive [inhibitor, single point] | –
37 | Cc1c(Cc2ccccc2)c(=O)oc2c(C)c(OC(C)C(=O)N[C@@H](Cc3ccccc3)C(=O)O)ccc12 (some centres not stated) | inconclusive [inhibitor, partial curve] | –
38 | O=C(Nc1ccc(Oc2cccnc2)nc1)c1ccc(C(F)(F)F)cc1 | inconclusive [inhibitor, partial curve, poor fit] | –
39 | Cc1ccc(-n2nc3c(=O)n(CCCC(=O)N4CCC(C)CC4)nc(C)c3c2C)cc1 | inconclusive [inhibitor, partial curve] | –
40 | Cc1ccc(CNC(=O)C(CC(C)C)OC(=O)c2ccco2)cc1 (configuration not stated) | – | inactive: 21.6%
41 | Cc1ccc(C(=O)OCN2C(=O)c3ccccc3C2=O)c(O)c1 | – | inactive: -2.23%
42 | CC(C)(C)c1ccc(OCCCC(=O)Nc2cccc(S(=O)(=O)N3CCOCC3)c2)cc1 | inconclusive [inhibitor, single point] | –
43 | COc1ccc(NC(=O)[C@H](Cc2c[nH]c3ccccc23)NC(=O)[C@@H]2Cc3ccccc3CN2)cc1 | inconclusive [inhibitor, full curve, poor fit] | –
44 | CCCCN=C(N)/C(C(=O)OCC)=C(\O)c1ccc(OC)cc1 | inconclusive [inhibitor, single point] | –
45 | O=C(NCCc1csc(-c2cccnc2)n1)c1ccccc1 | inconclusive [inhibitor, partial curve, poor fit] | –
46 | COc1ccc(-n2c(/C=C(\C)O)nc(=O)c3c(C)cc(C)nc32)cc1 | active: 0.828 µM | –

Row | SMILES | Potency | activity change, negative = inhibition
47 | CC(C)(C)OC(=O)[C@H](Cc1ccccc1)NC(=O)c1[nH]cnc1C(=O)Nc1cccc(Cl)c1 | inconclusive [inhibitor, single point] | –
48 | CCOCCCNC(=O)N[C@H](C(=O)OC)C(C)CC (some centres not stated) | inconclusive [inhibitor, partial curve, poor fit] | –
49 | CCc1ccc(N(CC(=O)NC2CCCC2)C(=O)CCC(=O)Nc2cc(C)on2)cc1 | inconclusive [inhibitor, partial curve, poor fit] | –
50 | Cc1ccc(CN2CCCC(CO)(Cc3ccccc3C)C2)s1 (configuration not stated) | inconclusive [inhibitor, single point] | –
51 | O=C(Nc1ccc(Cc2ccncc2)cc1)C1CCC(N2C(=O)C3CCCCC3C2=O)CC1 (configuration not stated) | inconclusive [inhibitor, partial curve] | –
52 | Cc1cccc(NC(=O)CSc2nnc(CSc3nc(C)cc(C)n3)n2Cc2ccco2)c1 | inconclusive [inhibitor, single point] | –
53 | CCOc1ccc(NS(=O)(=O)c2cc(C(=O)N3CCCC3)ccc2Cl)cc1 | inconclusive [inhibitor, partial curve, poor fit] | –
54 | COc1ccc([N+](=O)[O-])cc1/C=N/Nc1nc(N2CCCCC2)nc(N2CCCCC2)n1 | inconclusive [inhibitor, single point] | –
55 | CCNC(=S)N1CCN(C(=O)C(Cc2ccccc2)NC(C)=O)CC1 (configuration not stated) | – | inactive: 54.4%
56 | CCCOc1ccccc1/C=C1\SC(N)=NC1=O | inconclusive [inhibitor, partial curve, poor fit] | –
57 | Cc1ccc(-c2n[nH]c(=O)c3ccccc23)cc1S(=O)(=O)Nc1ccc(F)cc1 | inconclusive [inhibitor, partial curve] | –
58 | COc1ccccc1NC1=C(N2CCCCC2)C(=O)c2ccccc2C1=O | active: 0.0465 µM | –
59 | Cc1ccc2nc(NNC(=O)c3ccc(S(=O)(=O)N4CCc5ccccc5C4)cc3)sc2c1 | active: 1.85 µM | –
60 | NC(=O)c1ccc(NC(=O)c2cccc3c2OCCCO3)cc1 | – | inactive: 42.5%
61 | Cc1nc(C)c(C(=O)N2CCCC(C(=O)c3cc(F)ccc3F)C2)s1 (configuration not stated) | – | inactive: 25.2%
62 | CCCCOc1ccc(OC(=O)c2cccnc2)cc1 | inconclusive [inhibitor, single point] | –
63 | COc1ccc(C)cc1N(C(=O)c1cccc(F)c1)c1nc2ccccc2s1 | inconclusive [inhibitor, single point] | –
64 | COc1ccc(CNc2nc3c(c(=O)n(Cc4ccc(Br)cc4)c(=O)n3C)n2C)cc1 | inconclusive [inhibitor, single point] | –
65 | NC(=O)c1ccccc1NC(=O)c1cc(S(=O)(=O)N2CCCCC2)ccc1N1CCOCC1 | active: 13.1 µM | –
66 | CCOC(=O)Cc1ncccc1C(=O)Nc1ccc(Oc2ccccc2)cc1 | active: 8.28 µM | –
67 | CCOC(=O)C1=C(COC(=O)c2ccc3ccccc3c2O)NC(=O)NC1C (configuration not stated) | inconclusive [inhibitor, single point] | –
